The values below come from patent US20200148779A1 (Bristol-Myers Squibb, published 2020).

Where two headings read alike, the source gives them in different places.

Broadly, the koff is the first-order rate constant of dissociation. High values mean fast dissociation, low ones slow dissociation. A word on the kon: it is the second-order rate constant of association. A high value points to fast association.

In assay [1] the target is T1, hCD64-His (human, UniProt P12314 16-288, limits assumed).
T1 construct: also called hFcgRI
The assay is described as follows: SPR % Rmax, supernatant.

Assay [2] concerns the target human CD40 on human tonsillar B cells (human, UniProt P25942 21-277). Nature of the assay: cell-based or functional assay.
The target of assay [3] is T2, human-CD40-monomer protein (human, UniProt P25942 in part, limits assumed).
T2 construct: generated in house; also called hCD40 monomer; hCD40monomer
The assay is described as follows: SPR, hCD40 monomer on protein A captured dAb-Fc. A general note: SPR reads the build-up and loss of mass on a sensor chip optically.

Assay [4] has as its target T3, human-CD40-Fc (human, UniProt P25942 in part).
T3 construct: generated in house; also called hCD40-Fc; not shown: Fc part of the in-house hCD40-Fc is not described
Nature of the assay: SPR, dAb-Fc on immobilized hCD40-Fc, apparent KD (avidity).

The target in assay [5] is T1, hCD64-His. The assay is described as follows: SPR, FcgR titration on protein A captured dAb-Fc.
Assay [6] concerns the target T3, human-CD40-Fc. The assay is described as follows: SPR, dAb-Fc on immobilized hCD40-Fc, apparent KD (avidity). This is another data set of the same source.
Another assay concerns the target T4, hCD32a-R131 (human, UniProt P12318 34-217).
T4 construct: also called FcgRIIa-R131
T4 sequence: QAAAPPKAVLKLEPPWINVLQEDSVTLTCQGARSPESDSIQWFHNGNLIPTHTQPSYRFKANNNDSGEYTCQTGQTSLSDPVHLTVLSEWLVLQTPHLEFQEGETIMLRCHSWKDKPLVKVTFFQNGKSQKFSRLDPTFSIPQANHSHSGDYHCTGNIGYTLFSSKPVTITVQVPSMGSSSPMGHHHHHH
The assay is described as follows: SPR, FcgR titration on protein A captured dAb-Fc.

T3 sequence (P25942 21-193): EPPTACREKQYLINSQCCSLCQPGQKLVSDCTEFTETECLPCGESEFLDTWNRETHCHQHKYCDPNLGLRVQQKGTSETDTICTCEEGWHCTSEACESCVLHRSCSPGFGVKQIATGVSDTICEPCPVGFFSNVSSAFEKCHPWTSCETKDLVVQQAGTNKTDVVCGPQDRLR
T1 sequence (P12314 other isoform, or with tags, fused parts or gaps limits assumed): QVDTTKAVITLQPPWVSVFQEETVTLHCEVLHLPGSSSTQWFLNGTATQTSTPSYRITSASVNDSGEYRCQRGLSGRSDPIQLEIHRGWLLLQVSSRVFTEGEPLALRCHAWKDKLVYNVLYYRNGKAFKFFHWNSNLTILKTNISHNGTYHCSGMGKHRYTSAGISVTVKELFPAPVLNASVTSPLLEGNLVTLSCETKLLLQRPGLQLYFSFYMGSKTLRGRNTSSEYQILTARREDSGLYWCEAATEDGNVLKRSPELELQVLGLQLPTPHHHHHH

B1: 3h56-269-IgG1a-C220S,P238K (Fc fusion)
chain: EVQLLESGGGLVQPGGSLRLSCAASGFTFRDYEMWWVRQAPGKGLERVSAINPQGTRTYYADSVKGRFTISRDNSKNTLYLQMNSLRAEDTAVYYCAKLPFRFSDRGQGTLVTVSSAST[gap - human IgG1 Fc with C220S P238K (EU numbers)]
On to B1, for which the binding result with hCD64-His [1] is reported as “binds”. Also, in assay [2], the “IC50 (ng/ml), human B cell proliferation stimulated with CD40L expressing CHO” value was found to be 34.6 ng/mL and the “IC50 (ng/ml), human B cell proliferation stimulated with CD40L-IZ trimer” value is 2.3 ng/mL. In assay [3], this molecule yielded a Kd of 4.9 nM, a koff of 0.00013 s⁻¹ and a kon of 25000 M⁻¹ s⁻¹. Also, the Kd in the assay with human-CD40-Fc [4] is under 1 nM.

B2: 3h56-269-IgG1-D265A (Fc fusion)
chain: EVQLLESGGGLVQPGGSLRLSCAASGFTFRDYEMWWVRQAPGKGLERVSAINPQGTRTYYADSVKGRFTISRDNSKNTLYLQMNSLRAEDTAVYYCAKLPFRFSDRGQGTLVTVSSAST[gap - human IgG1 Fc with D265A (EU numbers)]
As for B2, the values for the Kd in the assay with hCD64-His [5] and in the assay with human-CD40-Fc [6] were 62 nM and under 1 nM, respectively.

B3: 3h56-269-IgG4.1 (Fc fusion)
chain: EVQLLESGGGLVQPGGSLRLSCAASGFTFRDYEMWWVRQAPGKGLERVSAINPQGTRTYYADSVKGRFTISRDNSKNTLYLQMNSLRAEDTAVYYCAKLPFRFSDRGQGTLVTVSSAST[gap - human IgG4 Fc with S228P (EU numbers)]
notes: also called BMS-986090
Consider B3, for which the Kd with hCD64-His [5] is 2.8 nM; with hCD32a-R131 it was 2200 nM; with human-CD40-Fc [6] it was under 1 nM.

B4: 3h56-269-IgG1a-C220S,C226S,C229S,P238K (Fc fusion)
chain: EVQLLESGGGLVQPGGSLRLSCAASGFTFRDYEMWWVRQAPGKGLERVSAINPQGTRTYYADSVKGRFTISRDNSKNTLYLQMNSLRAEDTAVYYCAKLPFRFSDRGQGTLVTVSSAST[gap - human IgG1 Fc with C220S C226S C229S P238K (EU numbers)]
notes: tested from expression supernatant
With B4, the binding result in the assay with hCD64-His [1] is reported as “binds”.

B5: 3h56-269-IgG1a-C220S,C226A,C229A,P238K (Fc fusion)
chain: EVQLLESGGGLVQPGGSLRLSCAASGFTFRDYEMWWVRQAPGKGLERVSAINPQGTRTYYADSVKGRFTISRDNSKNTLYLQMNSLRAEDTAVYYCAKLPFRFSDRGQGTLVTVSSAST[gap - human IgG1 Fc with C220S C226A C229A P238K (EU numbers)]
Turning to B5, in the assay with hCD64-His [1], the binding result was “binds”. In assay [3], this molecule had a Kd of 4.6 nM, an off-rate constant (koff) of 0.00014 s⁻¹ and a kon of 30000 M⁻¹ s⁻¹. In the assay with human-CD40-Fc [4], the Kd is under 1 nM.

B6: 3h56-269-IgG1a-C220S,C226A,C229A,P238S (Fc fusion)
chain: EVQLLESGGGLVQPGGSLRLSCAASGFTFRDYEMWWVRQAPGKGLERVSAINPQGTRTYYADSVKGRFTISRDNSKNTLYLQMNSLRAEDTAVYYCAKLPFRFSDRGQGTLVTVSSAST[gap - human IgG1 Fc with changes]
In assay [3], B6 registered a Kd of 5.9 nM, a koff of 0.00016 s⁻¹ and a kon of 28000 M⁻¹ s⁻¹. Besides, the Kd with human-CD40-Fc [4] is under 1 nM.

B7: 3h56-269-IgG1f-C220S,N297A (Fc fusion)
chain: EVQLLESGGGLVQPGGSLRLSCAASGFTFRDYEMWWVRQAPGKGLERVSAINPQGTRTYYADSVKGRFTISRDNSKNTLYLQMNSLRAEDTAVYYCAKLPFRFSDRGQGTLVTVSSAST[gap - human IgG1 Fc with changes]
As to B7, in assay [2], the “IC50 (ng/ml), human B cell proliferation stimulated with CD40L expressing CHO” value worked out at 39.9 ng/mL and the “IC50 (ng/ml), human B cell proliferation stimulated with CD40L-IZ trimer” value came out at 2.8 ng/mL. Moreover, in assay [3], the Kd is 5 nM, the koff is 0.00014 s⁻¹ and the kon amounted to 27000 M⁻¹ s⁻¹. In addition, the Kd with human-CD40-Fc [4] is under 1 nM.
